MIC of N. gonorrhoeae strains collected 1971-2005, agar dilution (CLSI M07); ranges 0.03-64 mg/L (penicillin, azithromycin), 0.015-1 (cefixime, ceftriaxone), 0.5-256 (spectinomycin); higher = less susceptible. No active / inactive call per row; the paper counts cefixime and ceftriaxone above 0.25 and azithromycin above 1 mg/L as non-susceptible. The source says 'penicillin'; penicillin G is assumed. Isolates are numbered anew.
Assays:
Test in all cases: Agar dilution by CLSI M07.
cefixime = compound: C=CC1=C(C(=O)O)N2C(=O)[C@@H](NC(=O)/C(=N\OCC(=O)O)c3csc(N)n3)[C@H]2SC1 [cefixime]
spectinomycin = compound: CN[C@@H]1[C@H](O)[C@H](NC)[C@H]2O[C@@]3(O)C(=O)C[C@@H](C)O[C@H]3O[C@@H]2[C@H]1O [spectinomycin]
azithromycin = compound: CC[C@H]1OC(=O)[C@H](C)[C@@H](O[C@H]2C[C@@](C)(OC)[C@@H](O)[C@H](C)O2)[C@H](C)[C@@H](O[C@@H]2O[C@H](C)C[C@H](N(C)C)[C@H]2O)[C@](C)(O)C[C@@H](C)CN(C)[C@H](C)[C@@H](O)[C@]1(C)O [azithromycin]
ceftriaxone = compound: CO/N=C(\C(=O)N[C@@H]1C(=O)N2C(C(=O)O)=C(CSc3nc(=O)c(O)nn3C)CS[C@H]12)c1csc(N)n1 [ceftriaxone]
penicillin G = compound: CC1(C)S[C@@H]2[C@H](NC(=O)Cc3ccccc3)C(=O)N2[C@H]1C(=O)O [penicillin G]

Test System | MIC (cefixime) | MIC (spectinomycin) | MIC (azithromycin) | MIC (ceftriaxone) | MIC (penicillin G)
Neisseria gonorrhoeae isolate 147 (GyrA: S91F, D95G, ParC: Wild type, mtrR: G45D, penA: Type IV NonMosaic, A517G, G543S, ponA: L421P, porB: G120K, A121D) | 0.06 µg/mL | 16 µg/mL | 0.125 µg/mL | 0.03 µg/mL | 1 µg/mL
Neisseria gonorrhoeae isolate 148 (GyrA: Wild type, ParC: Wild type, mtrR: Wild type, penA: Type XIX NonMosaic, A517G, ponA: L421P, porB: G120D, A121D) | ≤ 0.015 µg/mL | 16 µg/mL | 0.125 µg/mL | ≤ 0.015 µg/mL | 0.5 µg/mL
Neisseria gonorrhoeae isolate 149 (GyrA: S91F, D95G, ParC: Wild type, mtrR: -35A Del, penA: Type V Nonmosaic, A517G, G543S, ponA: L421P, porB: G120K, A121D) | 0.25 µg/mL | 16 µg/mL | 0.25 µg/mL | 0.125 µg/mL | 4 µg/mL
Neisseria gonorrhoeae isolate 150 (GyrA: Wild type, ParC: Wild type, mtrR: -35A Del, G45D, penA: Type XXII NonMosaic, A517G, ponA: L421P, porB: G120D) | 0.03 µg/mL | 16 µg/mL | 0.5 µg/mL | 0.03 µg/mL | 2 µg/mL
Neisseria gonorrhoeae isolate 151 (GyrA: S91F, ParC: Wild type, mtrR: G45D, penA: Type IV NonMosaic, A517G, G543S, ponA: L421P, porB: G120K, A121D) | 0.03 µg/mL | 32 µg/mL | 0.06 µg/mL | 0.06 µg/mL | 4 µg/mL
Neisseria gonorrhoeae isolate 152 (GyrA: Wild type, ParC: Wild type, mtrR: -35A Del, penA: Type XXII NonMosaic, A517G, ponA: L421P, porB: G120K, A121D) | 0.03 µg/mL | 16 µg/mL | 0.5 µg/mL | 0.03 µg/mL | > 64 µg/mL
Neisseria gonorrhoeae isolate 153 (GyrA: Wild type, ParC: Wild type, mtrR: -35A Del, penA: Type XXII NonMosaic, A517G, ponA: Wild type, porB: G120D) | ≤ 0.015 µg/mL | 8 µg/mL | ≤ 0.03 µg/mL | ≤ 0.015 µg/mL | 0.06 µg/mL
Neisseria gonorrhoeae isolate 154 (GyrA: Wild type, ParC: Wild type, mtrR: Wild type, penA: Type I NonMosaic, ponA: Wild type, porB: Wild type) | ≤ 0.015 µg/mL | 32 µg/mL | 0.125 µg/mL | ≤ 0.015 µg/mL | 0.06 µg/mL
Neisseria gonorrhoeae isolate 155 (GyrA: Wild type, ParC: Wild type, mtrR: Wild type, penA: Type I NonMosaic, ponA: Wild type, porB: Wild type) | ≤ 0.015 µg/mL | 32 µg/mL | 0.125 µg/mL | ≤ 0.015 µg/mL | 0.125 µg/mL
Neisseria gonorrhoeae isolate 156 (GyrA: S91F, D95G, ParC: Wild type, mtrR: -35A Del, penA: Type V Nonmosaic, A517G, G543S, ponA: L421P, porB: G120K, A121D) | 0.03 µg/mL | 16 µg/mL | 0.25 µg/mL | 0.03 µg/mL | 2 µg/mL
Neisseria gonorrhoeae isolate 157 (GyrA: S91F, D95G, ParC: Wild type, mtrR: -35A Del, penA: Type V Nonmosaic, A517G, G543S, ponA: L421P, porB: G120K, A121N) | 0.03 µg/mL | 16 µg/mL | 0.25 µg/mL | 0.03 µg/mL | 4 µg/mL
Neisseria gonorrhoeae isolate 158 (GyrA: Wild type, ParC: Wild type, mtrR: -35A Del, A39T, penA: Type IV NonMosaic, A517G, G543S, ponA: L421P, porB: G120K, A121D) | 0.06 µg/mL | 16 µg/mL | 0.125 µg/mL | 0.125 µg/mL | 4 µg/mL
Neisseria gonorrhoeae isolate 159 (GyrA: Wild type, ParC: Wild type, mtrR: G45D, penA: Type XXII NonMosaic, A517G, ponA: Wild type, porB: Wild type) | ≤ 0.015 µg/mL | 8 µg/mL | 0.06 µg/mL | ≤ 0.015 µg/mL | 0.25 µg/mL
Neisseria gonorrhoeae isolate 160 (GyrA: Wild type, ParC: Wild type, mtrR: -35A Del, penA: Type XXII NonMosaic, A517G, ponA: L421P, porB: G120D, A121D) | 0.03 µg/mL | 64 µg/mL | 0.5 µg/mL | 0.03 µg/mL | 2 µg/mL

Reference: the supplement of paper PMC10928670
